Source: PubChem BioAssay AID1457 (National Center for Advancing Translational Sciences (NCATS), 2008)
Hit rate of the full screen: of about 210,000 compounds, about 730 (0.35%) were called active. This list was built around the results that the source calls inconclusive (neither active nor inactive); the mix of calls is not that of the screen. Calls follow the shape of the dose curve; as a rule, active = well fitted inhibition curve with a large enough effect; inconclusive = small, poorly fitted or top-dose-only effect; inactive = no such curve, though single readings can be large or run the other way. Potencies of inconclusive entries are doubtful fits and often do not repeat.

Test: qHTS Assay for Identifying the Cell-Membrane Permeable IMPase Inhibitors: Potentiation with Lithium; also: nearly all actives have a fitted effect of over 50% in size
Settings: CHO-M1 cells, IP1 TR-FRET (IP-One), carbachol + lithium; series mostly up to 59.4 µM
Summary of the method: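 Lithium-sensitised IP1 accumulation assay; M1-expressing CHO cells treated 30 min at 37C with compound. Competitive antibody detection by time-resolved FRET followed a 10 min room-temperature lysis step.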
Potency is read from the fitted curve at half-maximal effect.

Row | Compound | Potency
1 | CCOC(=O)CSc1ccc(S(=O)(=O)N(CC)CC)cc1[N+](=O)[O-] | inactive
2 | COc1ccc(N2CCn3c2nc2c3c(=O)n(CCc3ccccc3)c(=O)n2C)cc1 | inconclusive: 0.178 µM [inhibitor, full curve]
3 | CCOc1cc(CNc2ccc(N3CCOCC3)cc2)cc(Br)c1OCC | inactive
4 | O=C1CCCC(O)=C1Sc1ccccc1C(=O)O | inactive
5 | CCOC(=O)C/C(N)=N/N(C)c1ncc(C(F)(F)F)cc1Cl | inactive
6 | O=C(CSc1nc2ccccc2c(=O)n1Cc1ccc(F)cc1)NCc1cccs1 | inconclusive: 28.2 µM [inhibitor, single point]
7 | Nc1ccc2nc(-c3ccccc3)sc2c1 | active: 11.2 µM
8 | CCOC(=O)n1c(=O)n(Cc2ccccc2C)c2ccccc21 | inconclusive: 5.01 µM [inhibitor, single point]
9 | O=C(NCc1ccccc1F)C1CCN(C(=O)c2sccc2-n2cccc2)CC1 | inactive
10 | COCCCNC(=O)c1c(NC(=O)c2cccs2)sc2c1CCCC2 | inconclusive: 28.2 µM [inhibitor, single point]
11 | COc1cc(C)nc(N2CCCC(C(=O)Nc3cccc(Cl)c3C)C2)n1 (stereo unspecified) | inactive
12 | CC(=O)Nc1ccc(NC2=C(Cl)C(=O)c3ccccc3C2=O)cc1 | inactive
13 | Cc1ccc(-n2nnnc2SCn2nnc3ccccc3c2=O)cc1 | inactive
14 | CCN(CCCNC(=O)c1c(C)cc(=O)oc1C)c1ccccc1 | inactive
15 | COC(=O)c1cccc(S(=O)(=O)N(Cc2ccco2)Cc2cc3cc(OC)c(OC)cc3[nH]c2=O)c1 | inconclusive: 28.2 µM [inhibitor, single point]
16 | Cc1ccc(N=C2NC(=O)c3cc([N+](=O)[O-])ccc32)cc1 | active: 12.6 µM
17 | CN(C)C(=C(C#N)C#N)N1CCN(c2ccc(Cl)cc2)CC1 | inconclusive: 28.2 µM [inhibitor, single point]
18 | CCN(CC)Cc1c(O)ccc2c([N+](=O)[O-])c(C)n(-c3ccc(OC)cc3)c12 | inactive
19 | CCn1cc(C(=O)NCc2ccc3c(c2)OCO3)c(=O)c2cc(F)c(N3CCN(C(=O)c4ccco4)CC3)cc21 | inactive
20 | COc1ccc2c(C)cc(=S)[nH]c2c1 | inconclusive: 11.2 µM [inhibitor, partial curve]
21 | COC(=O)C1=C(C)NC(=O)NC1c1ccsc1 (stereo unspecified) | inconclusive: 28.2 µM [inhibitor, single point]
22 | COc1ccc(C(=O)CSc2nnc(-c3ccc(C)cc3)o2)cc1 | inconclusive: 12.6 µM [inhibitor, single point]
23 | O=C(Cc1ccc([N+](=O)[O-])cc1)N1N=C(c2ccncc2)CC1(O)C(F)(F)F (stereo unspecified) | inconclusive: 28.2 µM [inhibitor, single point]
24 | COc1cccc(-c2ccc3ncnc(NCc4cccs4)c3c2)c1 | inactive
25 | COc1ccc2nc(NC(=O)C(NS(=O)(=O)c3cccc4nsnc34)C(C)C)sc2c1 (stereo unspecified) | inconclusive: 28.2 µM [inhibitor, single point]
26 | O=C(CSc1oc(-c2ccc(F)cc2)nc1S(=O)(=O)c1ccc(F)cc1)NCC1CCCO1 (stereo unspecified) | inactive

Row | Compound | Potency
27 | O=C(C1=C(O)C(=O)N(CCc2ccccc2)C1c1ccncc1)c1cc2ccccc2o1 (stereo unspecified) | active: 4.47 µM
28 | O=C(CN1CCN(Cc2ccccc2)CC1)c1c[nH]c2ccccc12 | inactive
29 | CC1CCN(CCOc2ccccc2-c2ccccc2)CC1 | inactive
30 | CCOCCCNC(=O)CSc1nc2nc(C)c(Cc3ccccc3)c(C)n2n1 | inconclusive: 3.55 µM [inhibitor, partial curve]
31 | COCCCN1C(=O)C(O)=C(C(=O)c2ccco2)C1c1ccccc1 (stereo unspecified) | active: 7.94 µM
32 | Cc1ccc(NC(=S)/N=C(\N)Nc2nc(C)c3ccccc3n2)cc1C | inconclusive: 28.2 µM [inhibitor, single point]
33 | COc1cc(C(=O)Nc2nnc(-c3sccc3C)s2)cc(OC)c1OC | inconclusive: 10 µM [inhibitor, single point]
34 | CN(Cc1cc(C(C)(C)C)cc(Br)c1O)Cc1cc(C(C)(C)C)cc(Br)c1O | inactive
35 | O=C(NCc1ccccc1)NC1(C(=O)Nc2ccc3c(c2)OCCO3)CCCCC1 | inactive
36 | OCCNc1nc(-c2ccccc2)nc2ccccc12 | inactive
37 | COC(=O)c1ccccc1NC(=O)COC(=O)c1ccco1 | inconclusive: 11.2 µM [inhibitor, single point]
38 | COc1ccc(-c2nc(CN3CCCCC3c3nccn3C)c(C)o2)c(C)c1C (stereo unspecified) | inactive
39 | N#Cc1cc2c(nc1SCC(=O)Nc1nccs1)CCCCC2 | inconclusive: 28.2 µM [inhibitor, single point]
40 | CC(C)OC(=O)C(C#N)c1nc2ccccc2nc1N1CCN(Cc2ccccc2)CC1 (stereo unspecified) | inconclusive: 28.2 µM [inhibitor, single point]
41 | CC1CCN(S(=O)(=O)c2ccc(NC(=O)CSc3nnnn3C)cc2)CC1 | inactive
42 | Cc1ccc2nc(NC(=O)CSc3ncnc4c3oc3ccccc34)sc2c1 | inconclusive: 28.2 µM [inhibitor, single point]
43 | COc1cc2c(=O)n(CCCN3CCOCC3)c(=S)[nH]c2c(OC)c1OC | inconclusive: 28.2 µM [inhibitor, single point]
44 | COC(=O)N1CCC[C@@]2(CCN(C(=O)Nc3ccc(OC)cc3)C2)C1 | inactive
45 | Cc1ccc(C)c2[nH]c(=O)c(CCNC(=O)Cc3cccs3)cc12 | inconclusive: 28.2 µM [inhibitor, single point]
46 | O=C(NC(=S)Nc1cccc2ncccc12)c1cccs1 | inconclusive: 28.2 µM [inhibitor, single point]
47 | Fc1ccc(CSc2ncnc3c2oc2ccccc23)cc1 | inconclusive: 28.2 µM [inhibitor, single point]
48 | CCCn1c(-c2ccccc2)nc2c(=O)n(C)c(=O)[nH]c21 | inconclusive: 8.91 µM [inhibitor, partial curve]
49 | Cc1cccc2c1N(CCCOc1ccc(C(C)(C)C)cc1)C(=O)C2=O | inactive
50 | CCN(CC)S(=O)(=O)c1ccc(NS(=O)(=O)c2ccc(F)cc2)cc1 | inactive
51 | Cc1ccc(-n2c(C)nc3oc4ccccc4c(=O)c3c2=O)cc1 | active: 6.31 µM
52 | CCCc1cc(=O)oc2c(CN3CCOCC3)c(O)ccc12 | inconclusive: 28.2 µM [inhibitor, single point]

Row | Compound | Potency
53 | O=C(CSc1ncnc2[nH]ncc12)Nc1cccc(Oc2ccccc2)c1 | inactive
54 | Cc1cc(NC(=O)CSc2ncnc3c2cnn3-c2ccccc2)no1 | inconclusive: 20 µM [inhibitor, single point]
55 | Cc1ccc(-n2c(-c3cccc(C)c3)n[nH]c2=S)cc1 | inactive
56 | CC(C)OC(=O)CSc1nc(N)c(C#N)c(-c2ccco2)c1C#N | inconclusive: 11.2 µM [inhibitor, partial curve]
57 | Cc1cc(NC(=O)CSc2nc3cc(Cl)ccc3c(=O)n2Cc2ccco2)no1 | inconclusive: 8.91 µM [inhibitor, partial curve]
58 | COc1ccc(N2CC(O)=C(c3nc(-c4ccc(F)cc4)cs3)C2=N)cc1Cl | inconclusive: 22.4 µM [inhibitor, single point]
59 | Cc1nc(NCCN2CCOCC2)c2nnn(Cc3ccccc3Cl)c2n1 | inactive
60 | CCOC(=O)c1[nH]c2cc3c(cc2c1NC(=O)CN1CCc2ccccc2C1)OCO3 | inconclusive: 28.2 µM [inhibitor, single point]
61 | CCOC(=O)C1=C(O)C(=O)N(c2ccc(S(N)(=O)=O)cc2)C1c1ccc(Cl)cc1 (stereo unspecified) | inconclusive: 12.6 µM [inhibitor, partial curve]
62 | COc1cccc(-c2nccc(NCCc3c[nH]c4ccc(OC)cc34)n2)c1 | inactive
63 | COC(=O)C1CC1C(NC(=O)[C@@H]1CCCN1)c1ccccc1 (stereo partly specified) | inactive
64 | O=C(COc1ccccc1[N+](=O)[O-])NCCC1=CCCCC1 | inconclusive: 3.98 µM [inhibitor, full curve, poor fit]
65 | Cc1ccc(CNC(=O)c2ccc(CN3CCOCC3)cc2)cc1 | inconclusive: 31.6 µM [inhibitor, partial curve, poor fit]
66 | Cc1cc(NC(=O)CSc2nnc(NC(=O)C3CC(=O)N(c4ccccc4C)C3)s2)no1 (stereo unspecified) | inconclusive: 11.2 µM [inhibitor, partial curve]
67 | O=S(=O)(c1ccccc1)c1cnn2c(C(F)(F)F)cc(-c3ccc(F)cc3)nc12 | inconclusive: 28.2 µM [inhibitor, single point]
68 | CNC(=O)c1c2c(nc3ccc(Br)cc13)CCCC2 | inconclusive: 10 µM [inhibitor, partial curve]
69 | CC(Oc1ccc(C(=O)c2ccccc2)cc1)C(=O)Nc1ccc(S(N)(=O)=O)cc1 (stereo unspecified) | inactive
70 | COc1ccc(/C(O)=C2\C(=O)C(=O)N(CCN(C)C)C2c2cccc(OC)c2OC)cc1Cl (stereo unspecified) | inconclusive: 14.1 µM [inhibitor, partial curve, poor fit]
71 | COCCn1c(SCC(=O)c2ccccc2)nc2ccccc2c1=O | inactive
72 | CCNc1ncc2nc(-c3ccc(OC)cc3)c(=O)n(CCOC)c2n1 | inconclusive: 3.16 µM [inhibitor, single point]
73 | CCN1CCCc2cc(CN(CCN3CCOCC3)C(=S)Nc3ccccc3C)ccc21 | inconclusive: 22.4 µM [inhibitor, single point]
74 | CCOc1ccc(N(C(=O)c2cnccn2)C(C(=O)NC2CCCCC2)c2ccc(O)cc2)cc1 (stereo unspecified) | inactive
75 | Cc1cc2sc(C(=O)O)c(C)c2s1 | inconclusive: 10 µM [inhibitor, partial curve]
76 | O=C(Nc1ccc(Cl)cc1)c1ccc(Br)cc1F | inactive
